“And” between values parts separate entries of the source, which are not always exact repeats. Equal values may be shown once. Read-outs that look alike come from different tables or passages of the source.
Tests used:
ErbB4 = molecular target: T1, ErbB4 (Rattus norvegicus, UniProt Q62956); assay: In vitro phosphorylation of Akt in neonatal rat cardiomyocytes; format: cell-based; conditions: for EC50: Akt (Serine 473) phosphorylation, neonatal rat cardiomyocytes, 15 minutes treatment, read-out: Cardiomyocyte (CM) (ErbB4) Avg EC50; for Selectivity SC/CM: ratio of EC50s Schwann cells/cardiomyocytes; for CM % Agonism AVG: top value of the Akt phosphorylation data points in cardiomyocytes, wild-type control 100
T1 construct: forming the ErbB2/ErbB4 complex in cardiomyocytes and the ErbB2/ErbB3 complex in Schwann cells; endogenous in cells; host or cells: primary neonatal rat cardiomyocytes (Sprague Dawley pups, 0 to 4 days old)
Protocol: (§1) In Vitro Phosphorylation of Akt in Neonatal Rat Cardiomyocytes and Rat Schwann Cells by Neuregulin Variants
(§2) Specificity of neuregulin variants towards cardiomyocytes (ErbB4) versus Schwann cells (ErbB3) was tested by measuring Akt activity generated by formation of the ErbB2/ErbB4 and ErbB2/ErbB3 complexes. Upon activation by neuregulin, the ErbB4 and ErbB3 receptors dimerize preferentially with the ErbB2 co-receptor, forming the ErbB2/ErbB4 complex in cardiomyocytes and the ErbB2/ErbB3 complex in Schwann cells, both of which signal through the Akt pathway. Neonatal rat cardiomyocytes were isolated from hearts of Sprague Dawley rat pups at 0 to 4 days old according to manufacturer's protocol using the Neomyt kit and plated on Surecoat plates in NS media containing serum (all from Cellultron Life Technologies, Baltimore, MD). Rat Schwann cells were plated in Poly-D-Lysine coated plates with Dulbecco's modified Eagle's media (DMEM) supplemented with fetal bovine serum (Thermo Fisher) and forskolin (Millipore Sigma).
(§3) After a 24-hour incubation in a humidified incubator maintained at 37° C. and 5% CO2, cardiomyocytes and Schwann cells were washed with serum free media and incubated an additional 16 hours in DMEM supplemented with bovine serum albumin (Sigma). Both cell lines were then treated with titrations of the neuregulin variant molecules for 15 minutes, upon which cells were lysed in lysis buffer (Meso Scale Discovery (MSD)). For detection of Akt phosphorylation, lysates were added to the Multi-Spot 96-Well 4-Spot Phospho (Serine 473)/Total Akt plates (MSD), incubated according to the manufacturer's protocol and read in the SECTOR Imager 6000 (MSD). For both cell assays, the percent phosphorylation of Akt was calculated by multiplying the phospho Akt signal by 2, then dividing by the phospho Akt signal added to the total Akt signal and then multiplying by 100. The phosphorylation of Akt data points were fitted using a log (agonist) versus response, variable slope (4 parameters) analysis in GraphPad Prism to generate EC50 curves. The CM % agonism reflect the top value of the data points.

ErbB3 = molecular target: T2, ErbB3 (Rattus norvegicus, UniProt Q62799); assay: In vitro phosphorylation of Akt in rat Schwann cells; format: cell-based; conditions: Akt (Serine 473) phosphorylation, 15 minutes treatment; for EC50: read-out: Schwann cells (SC) (ErbB3) Avg EC50
T2 construct: forming the ErbB2/ErbB4 complex in cardiomyocytes and the ErbB2/ErbB3 complex in Schwann cells; endogenous in cells; host or cells: rat Schwann cells
Protocol: as §1, §2, §3

[1] = listed as huNRG1(S177-F229)(NRGE1D)((G4E)2:G4)::huFcSEFL2 (Pb)

T1 sequence (Q62956 26-1308): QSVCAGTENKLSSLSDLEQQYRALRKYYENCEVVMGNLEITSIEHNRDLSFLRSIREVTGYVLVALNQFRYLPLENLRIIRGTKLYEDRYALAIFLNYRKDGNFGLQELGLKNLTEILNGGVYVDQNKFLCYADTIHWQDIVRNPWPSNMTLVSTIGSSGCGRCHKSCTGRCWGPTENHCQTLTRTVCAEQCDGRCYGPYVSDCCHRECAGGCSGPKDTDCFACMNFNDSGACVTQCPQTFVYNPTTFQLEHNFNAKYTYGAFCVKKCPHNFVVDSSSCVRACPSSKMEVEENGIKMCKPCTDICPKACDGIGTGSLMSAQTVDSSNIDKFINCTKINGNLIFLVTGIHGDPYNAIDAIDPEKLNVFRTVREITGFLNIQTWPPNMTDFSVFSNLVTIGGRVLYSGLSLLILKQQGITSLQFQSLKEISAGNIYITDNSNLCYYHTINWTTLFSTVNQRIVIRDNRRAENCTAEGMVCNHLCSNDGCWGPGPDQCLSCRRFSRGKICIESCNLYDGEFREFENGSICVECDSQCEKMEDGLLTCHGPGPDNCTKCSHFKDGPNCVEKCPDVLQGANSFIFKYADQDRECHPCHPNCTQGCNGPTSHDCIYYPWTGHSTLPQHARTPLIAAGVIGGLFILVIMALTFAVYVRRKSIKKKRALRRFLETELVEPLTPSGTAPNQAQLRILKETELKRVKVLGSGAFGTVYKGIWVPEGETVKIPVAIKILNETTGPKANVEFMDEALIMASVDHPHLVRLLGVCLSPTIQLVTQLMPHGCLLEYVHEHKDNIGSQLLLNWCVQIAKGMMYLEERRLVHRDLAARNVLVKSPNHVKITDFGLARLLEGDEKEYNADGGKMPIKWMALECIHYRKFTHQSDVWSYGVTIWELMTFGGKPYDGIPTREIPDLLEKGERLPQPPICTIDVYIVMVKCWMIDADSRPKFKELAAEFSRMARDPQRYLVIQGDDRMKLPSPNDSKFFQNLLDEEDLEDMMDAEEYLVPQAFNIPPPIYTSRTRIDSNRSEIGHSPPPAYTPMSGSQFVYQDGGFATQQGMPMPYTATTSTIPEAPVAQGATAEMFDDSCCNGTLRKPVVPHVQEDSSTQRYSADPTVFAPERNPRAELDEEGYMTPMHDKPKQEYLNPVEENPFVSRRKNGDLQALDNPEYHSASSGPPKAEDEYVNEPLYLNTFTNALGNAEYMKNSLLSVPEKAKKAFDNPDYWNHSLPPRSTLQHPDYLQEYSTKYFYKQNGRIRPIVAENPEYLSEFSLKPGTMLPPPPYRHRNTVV
T1 sequence (P06494 23-1257 partner): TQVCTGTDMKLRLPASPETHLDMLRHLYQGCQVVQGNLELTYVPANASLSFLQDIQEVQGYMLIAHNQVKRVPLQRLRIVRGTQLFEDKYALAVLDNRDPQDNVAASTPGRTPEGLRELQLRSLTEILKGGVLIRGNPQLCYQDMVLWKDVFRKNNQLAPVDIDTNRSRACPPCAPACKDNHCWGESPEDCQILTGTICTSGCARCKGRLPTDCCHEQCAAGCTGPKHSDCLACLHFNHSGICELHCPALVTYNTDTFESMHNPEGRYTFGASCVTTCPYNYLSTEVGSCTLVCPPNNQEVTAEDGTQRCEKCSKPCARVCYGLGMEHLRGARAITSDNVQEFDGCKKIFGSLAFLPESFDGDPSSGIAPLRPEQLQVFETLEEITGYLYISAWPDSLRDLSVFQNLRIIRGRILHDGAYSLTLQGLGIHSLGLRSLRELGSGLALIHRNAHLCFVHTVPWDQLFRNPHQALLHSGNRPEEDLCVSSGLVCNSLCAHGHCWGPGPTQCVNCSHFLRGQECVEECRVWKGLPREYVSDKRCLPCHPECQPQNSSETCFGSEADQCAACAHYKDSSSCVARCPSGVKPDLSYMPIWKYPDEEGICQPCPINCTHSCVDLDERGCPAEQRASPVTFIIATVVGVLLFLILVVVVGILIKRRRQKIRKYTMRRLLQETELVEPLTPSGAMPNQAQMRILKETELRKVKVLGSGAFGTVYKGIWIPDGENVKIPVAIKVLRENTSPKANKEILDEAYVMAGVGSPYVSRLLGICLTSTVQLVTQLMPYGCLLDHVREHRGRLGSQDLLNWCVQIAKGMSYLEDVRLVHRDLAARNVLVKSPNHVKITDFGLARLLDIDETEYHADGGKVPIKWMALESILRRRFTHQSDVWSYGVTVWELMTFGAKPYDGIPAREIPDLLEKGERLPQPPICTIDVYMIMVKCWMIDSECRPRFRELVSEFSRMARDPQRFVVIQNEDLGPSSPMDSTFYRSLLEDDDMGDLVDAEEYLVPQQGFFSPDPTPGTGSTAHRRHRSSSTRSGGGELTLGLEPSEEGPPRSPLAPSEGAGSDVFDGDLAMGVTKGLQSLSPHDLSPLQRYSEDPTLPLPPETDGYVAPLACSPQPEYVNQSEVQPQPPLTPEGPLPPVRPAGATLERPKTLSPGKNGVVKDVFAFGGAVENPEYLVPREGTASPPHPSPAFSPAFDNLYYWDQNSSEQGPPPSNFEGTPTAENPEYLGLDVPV
T2 sequence (Q62799 20-1339): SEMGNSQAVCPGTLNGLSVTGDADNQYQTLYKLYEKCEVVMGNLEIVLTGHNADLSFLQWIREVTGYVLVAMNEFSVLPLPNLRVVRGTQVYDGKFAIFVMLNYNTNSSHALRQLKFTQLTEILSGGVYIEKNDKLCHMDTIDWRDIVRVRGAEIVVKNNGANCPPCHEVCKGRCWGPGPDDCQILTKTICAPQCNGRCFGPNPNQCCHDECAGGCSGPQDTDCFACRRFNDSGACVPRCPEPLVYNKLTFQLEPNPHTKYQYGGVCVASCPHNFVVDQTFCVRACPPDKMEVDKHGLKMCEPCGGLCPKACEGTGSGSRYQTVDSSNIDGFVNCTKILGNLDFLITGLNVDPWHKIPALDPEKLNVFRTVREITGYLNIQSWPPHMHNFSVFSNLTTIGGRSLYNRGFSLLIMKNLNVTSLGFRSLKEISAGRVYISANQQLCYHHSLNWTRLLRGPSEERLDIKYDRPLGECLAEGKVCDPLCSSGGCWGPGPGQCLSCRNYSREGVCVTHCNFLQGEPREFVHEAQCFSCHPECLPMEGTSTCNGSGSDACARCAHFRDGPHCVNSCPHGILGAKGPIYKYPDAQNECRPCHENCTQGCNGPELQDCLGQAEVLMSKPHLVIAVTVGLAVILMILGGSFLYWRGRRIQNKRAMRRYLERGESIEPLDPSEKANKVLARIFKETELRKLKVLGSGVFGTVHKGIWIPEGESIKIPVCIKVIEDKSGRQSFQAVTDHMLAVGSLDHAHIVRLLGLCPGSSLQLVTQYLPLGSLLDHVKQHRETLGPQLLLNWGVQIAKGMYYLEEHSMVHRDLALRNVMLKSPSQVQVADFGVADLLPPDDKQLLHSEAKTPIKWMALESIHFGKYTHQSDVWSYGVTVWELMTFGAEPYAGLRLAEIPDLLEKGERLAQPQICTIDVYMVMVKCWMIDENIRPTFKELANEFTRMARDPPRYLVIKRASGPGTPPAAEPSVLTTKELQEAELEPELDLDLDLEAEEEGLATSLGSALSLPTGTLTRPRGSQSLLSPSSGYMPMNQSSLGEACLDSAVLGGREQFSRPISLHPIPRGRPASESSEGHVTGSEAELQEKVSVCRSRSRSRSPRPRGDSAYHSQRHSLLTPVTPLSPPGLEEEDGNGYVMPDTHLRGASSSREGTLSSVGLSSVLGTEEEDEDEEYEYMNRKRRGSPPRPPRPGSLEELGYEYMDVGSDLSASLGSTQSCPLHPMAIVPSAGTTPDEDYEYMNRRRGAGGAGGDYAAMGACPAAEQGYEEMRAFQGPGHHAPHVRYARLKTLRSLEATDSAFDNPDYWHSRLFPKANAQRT
T2 sequence (P06494 23-1257 partner): as the sequence (P06494 23-1257 partner) above

Molecule	EC50 (ErbB4)	Selectivity SC/CM (ErbB4)	CM % Agonism AVG (ErbB4)	EC50 (ErbB3)	EC50 (ErbB4; [1])	CM % Agonism AVG (ErbB4; [1])	Schwann cells (SC) (ErbB3) Avg EC50 (M) (ErbB3)
huNRG1(S177-Q237)(1A1)::GG::huFcSEFL2 (Pb): Fc fusion of NRG1 variant SEQ ID NO:144 (protein, huNRG1(S177-Q237)(1A1)::GG::huFcSEFL2 (Pb)) SHLVKCGESEKSFCVNGGECYVIEDSSIPSRFLCKCPNEFTGDRCQNVFLASFYKAEELYQGG[letters of human IgG1 Fc with R292C N297G V302C (EU numbers) not shown]	0.133 nM	69	Full	9.11 nM			
huNRG1(S177-Q237)(1A12)::GG::huFcSEFL2 (Pb): Fc fusion of NRG1 variant SEQ ID NO:145 (protein, huNRG1(S177-Q237)(1A12)::GG::huFcSEFL2 (Pb)) SHLVKCAEKHKSFCVNGGECYVVERPSIPSRYLCKCPNEFTGDRCQKFFMASFYKAEELYQGG[letters of human IgG1 Fc with R292C N297G V302C (EU numbers) not shown]	0.722 nM	66	Full	47.9 nM			
huNRG1(S177-Q237)(1B4)::GG::huFcSEFL2 (Pb): Fc fusion of NRG1 variant SEQ ID NO:147 (protein, huNRG1(S177-Q237)(1B4)::GG::huFcSEFL2 (Pb)) SHLVKCGERDKTFCVNGGECFMIEDSSNPSRYLCKCPNEFTGDRCQKDFMASFYKAEELYQGG[letters of human IgG1 Fc with R292C N297G V302C (EU numbers) not shown]	0.996 nM	>10000	Full	10000 nM			
huNRG1(S177-Q237)(1D10)::GG::huFcSEFL2 (Pb): Fc fusion of NRG1 variant SEQ ID NO:150 (protein, huNRG1(S177-Q237)(1D10)::GG::huFcSEFL2 (Pb)) SHLVKCAERDKTFCVNGGECYMIEDLSIPSRYLCKCPNEFTGDRCQKDFMASFYKAEELYQGG[letters of human IgG1 Fc with R292C N297G V302C (EU numbers) not shown]	0.741 nM	>4000	Full	> 3000 nM			
huNRG1(S177-Q237)(1B9)::GG::huFcSEFL2 (Pb): Fc fusion of NRG1 variant SEQ ID NO:148 (protein, huNRG1(S177-Q237)(1B9)::GG::huFcSEFL2 (Pb)) SHLVKCAEKHKSFCVNGGECFMVEDLSIPSRYLCKCPNEFTGDRCQDVFMASFYKAEELYQGG[letters of human IgG1 Fc with R292C N297G V302C (EU numbers) not shown]	1.92 nM	520		1000 nM			
huNRG1(S177-Q237)(1D4)::GG::huFcSEFL2 (Pb): Fc fusion of NRG1 variant SEQ ID NO:152 (protein, huNRG1(S177-Q237)(1D4)::GG::huFcSEFL2 (Pb)) SHLVKCGERDKTFCVNGGECYVVEHSSNPSRYLCKCPNEFTGDRCQKFFLASFYKAEELYQGG[letters of human IgG1 Fc with R292C N297G V302C (EU numbers) not shown]	0.924 nM and 0.576 nM		Full				
huNRG1(S177-Q237)(1D3)::GG::huFcSEFL2 (Pb): Fc fusion of NRG1 variant SEQ ID NO:151 (protein, huNRG1(S177-Q237)(1D3)::GG::huFcSEFL2 (Pb)) SHLVKCGENDKSFCVNGGECFVIEDPSIPSRYLCKCPNEFTGDRCQNDFLASFYKAEELYQGG[letters of human IgG1 Fc with R292C N297G V302C (EU numbers) not shown]		>10000 and >6170		10000 nM and > 10000 nM			
huNRG1(S177-Q237)(2E3)::GG::huFcSEFL2 (Pb): Fc fusion of NRG1 variant SEQ ID NO:153 (protein, huNRG1(S177-Q237)(2E3)::GG::huFcSEFL2 (Pb)) SHLVKCGEKEKSFCVNGGECYMIEGLSIPSRFLCKCPNEFTGDRCQDVFMASFYKAEELYQGG[letters of human IgG1 Fc with R292C N297G V302C (EU numbers) not shown]	0.658 nM	1521		1000 nM			
huNRG1(S177-F229)(NRGE1C)::1KmodT482V, M493L)::huFcSEFL2 (Pb): Fc fusion of NRG1 variant SEQ ID NO:117 (protein, huNRG1(S177-F229) (NRGE1C)::1KmodT482V,M493L)::huFcSEFL2 (Pb)) SHLVKCGEKHKSFCVNGGECFMIEGPSNPSRYLCKCPNEFTGDRCQEDFMASFGSGSATGGSGSVASSGSGSATHL[letters of human IgG1 Fc with R292C N297G V302C (EU numbers) not shown]	0.4 nM	>10000	75.8%	> 10000 nM			

The remaining molecules from weak to strong by EC50 (ErbB4), led by results:

EC50 (ErbB4)	Selectivity SC/CM (ErbB4)	CM % Agonism AVG (ErbB4)	EC50 (ErbB3)	EC50 (ErbB4; [1])	CM % Agonism AVG (ErbB4; [1])	Schwann cells (SC) (ErbB3) Avg EC50 (M) (ErbB3)	Molecule
1.1 nM	79	Full	87 nM				huNRG1(S177-Q237)(1C11)::GG::huFcSEFL2 (Pb): Fc fusion of NRG1 variant SEQ ID NO:149 (protein, huNRG1(S177-Q237)(1C11)::GG::huFcSEFL2 (Pb)) SHLVKCGEKEKTFCVNGGECYMVERPSIPSRFLCKCPNEFTGDRCQKFFMASFYKAEELYQGG[letters of human IgG1 Fc with R292C N297G V302C (EU numbers) not shown]
0.619 nM	1616	Full	1000 nM				huNRG1(S177-Q237)(1A7)::GG::huFcSEFL2 (Pb): Fc fusion of NRG1 variant SEQ ID NO:146 (protein, huNRG1(S177-Q237)(1B4)::GG::huFcSEFL2 (Pb)) SHLVKCAERDKSFCVNGGECYVIEHLSNPSRFLCKCPNEFTGDRCQKDFMASFYKAEELYQGG[letters of human IgG1 Fc with R292C N297G V302C (EU numbers) not shown]
0.429 nM	143	Full	61.5 nM				huNRG1(S177-Q237)(2E4)::GG::huFcSEFL2 (Pb): Fc fusion of NRG1 variant SEQ ID NO:154 (protein, huNRG1(S177-Q237)(2E4)::GG::huFcSEFL2 (Pb)) SHLVKCGESDKSFCVNGGECFMVKRPSNPSRYLCKCPNEFTGDRCQKVFLASFYKAEELYQGG[letters of human IgG1 Fc with R292C N297G V302C (EU numbers) not shown]
0.28 nM	>10000	84.6%	> 10000 nM	0.079 nM	88.2%	inactive	huNRG1(S177-F229)(NRGE1D)((G4E)2)::G4::huFcSEFL2 (Pb): Fc fusion of NRG1 variant SEQ ID NO:126 (protein, huNRG1(S177-F229) (NRGE1D)::(G4S)2::G4::huFcSEFL2 (Pb)) SHLVKCGESHKSFCVNGGECYMVEGSSIPSRYLCKCPNEFTGDRCQEDFMASFGGGGEGGGGEGGGG[letters of human IgG1 Fc with R292C N297G V302C (EU numbers) not shown]

Source: US12692294B2, “Engineered NRG-1 variants with improved selectivity toward ErbB4 but not against ErbB3” (Amgen Inc., priority 2021, dated 2026)
